Reference: patent publication US7253149B2, “Compounds and methods for modulating cell-adhesion mediated drug resistance” (University of South Florida, priority 2000, dated 2007)

System: 8226 myeloma cells
Assay: Microtiter adhesion assay, adhesion of 8226 cells to fibronectin

Substance: kmviywkag ([dK][dM][dV][dI][dY][dW][dK][dA]G) [RZ-3]
- effect on adhesion of 8226 cells to FN (1.25 μg/ml to 20 μg/ml, FIG. 24 and 25): effective in preventing FN adhesion
- effect on adhesion of 8226 cells to FN (20 μg/ml to 100 μg/ml, FIG. 23): effective in preventing FN adhesion

Where no end group is shown, it is not given here. [ ]: non-standard residue; d: D form.
